Patent publication US20250368735A1 (AKESO BIOPHARMA, published 2025)

Tests used:
[1] = target: T1, CD47 on the cell membrane surface (CHO-K1-CLDN18.2-CD47 cells, 3T3-CD47 cells, human red blood cells, human T … (human, UniProt Q08722)); assay: competitive flow cytometry on CHO-K1-CLDN18.2-CD47 cells; competitor hSIRPaV2-hFc-mFc at 3 nM
T1 construct: whole, on cells; blood cells came from healthy human volunteers; also called cell membrane surface antigen CD47
Method: 100 μL of 1% PBSA was then added to each well, and the mixture was centrifuged and washed.

[2] = target: T2, human CLDN18.2 (ELISA coating antigen) (human, UniProt P56856-2 1-261, limits assumed); assay: indirect ELISA, coated human CLDN18.2 2 µg/mL
T2 construct: also called antigen human CLDN18.2
Method: After blocking, the ELISA plate was washed 3 times with PBST. The ELISA plate containing the test antibodies was incubated at 37° C. for 30 min and then washed 3 times with PBST. […] The ELISA plate was put into a microplate reader immediately, and the OD value of each well in the ELISA plate was read at 450 nm. The data were analyzed and processed by SoftMax Pro 6.2.1.

[3] = target: T1, CD47 on the cell membrane surface …; assay: flow cytometry on human PBMC, CD3-CD19+ B cells, anti-human IgG Fc-AF647
[4] = target: T3, CLDN18.2 on the cell membrane surface (CHO-K1-CLDN18.2 cells, CHO-K1-CLDN18.2-CD47 cells, CHO-K1-hClaudin18.2 … (human, UniProt P56856-2 1-261)); assay: flow cytometry (FACS) on CHO-K1-CLDN18.2 cells, PE anti-human IgG Fc
T3 construct: whole, on cells; also called human Claudin18.2

[5] = target: T4, CD47 ECD-His (human, UniProt Q08722 fragment, limits assumed); assay: BLI (Fortebio Octet), antibody on AHC sensor, CD47 ECD-His 4.94-400 nM, 1:1 fit
T4 construct: extracellular domain; also called human CD47 ECD-His; not shown: His tag
Method: (§1) The affinity constant of the antibody for human CLDN18.2 and CD47 ECD-His was determined using a Fortebio Octer molecular interaction instrument. The sample dilution buffer was PBS (0.02% Tween-20, 0.1% BSA, pH 7.4). The method for detecting the affinity of the antibody for human CLDN18.2 is as follows. The antibody at 20 nM was immobilized on an AHC sensor for 60 s. The sensor was equilibrated in a buffer for 60 s, and the binding of the immobilized antibody on the sensor to CLDN18.2 His at concentrations of 6.25-100 nM (two-fold dilution) was determined for 180 s. The protein was dissociated in the buffer for 360 s. The method for detecting the affinity of the antibody to human CD47 ECD-His is as follows. The antibody at 30 nM was immobilized on an AHC sensor for 120 s. The sensor was equilibrated in a buffer for 60 s, and the binding of the immobilized antibody on the sensor to the protein CD47 ECD-His at concentrations of 4.94-400 nM (three-fold dilution) was determined for 50 s. The protein was dissociated in the buffer for 120 s. The shaking speed of the sample plate was 1000 rpm, the temperature was 30° C., and the frequency was 5.0 Hz. The data were analyzed by 1:1 model fitting to obtain affinity constants. The data acquisition software was Fortebio Data Acquisition 12.0, and the data analysis software was Fortebio Data Analysis HT 12.0.

[6] = target: T5, CD47 IgV TEV-His (human, UniProt Q08722 fragment); assay: indirect ELISA, coated CD47-Igv-TEV-his 2 µg/mL
T5 construct: range 19-141; also called human CD47 IgV TEV-His; not shown: his tag
Method: After blocking, the ELISA plate was washed 3 times with PBST. The ELISA plate containing the test antibodies was incubated at 37° C. for 30 min and then washed 3 times with PBST. […] The data were analyzed and processed by SoftMax Pro 6.2.1.

[7] = target: T6, CLDN18.2 His (human, UniProt P56856-2 1-261, limits assumed); assay: BLI (Fortebio Octet), antibody on AHC sensor, CLDN18.2 His 6.25-100 nM, 1:1 fit
T6 construct: also called antigen CLDN18.2 His; human CLDN18.2; not shown: His tag
Method: as §1

B1: AsAb-8C4703 (bispecific antibody, human IgG1, kappa)
chain: QVQLVQSGAEVVKPGASVKLSCKASGYTFTSYWMNWVRQRPGQCLEWIGMIDPSDSETHNAQKFQGKATLTVDKSTSTAYMHLSSLRSEDTAVYYCARLYRWYFDVWGAGTTVTVSSGGGGSGGGGSGGGGSGGGGSNIVMTQSPATMSMSPGERVTLSCRASEIVGTYVSWFQQKPGQAPRLLIYGASNRYTGVPARFSGSGSGTDFTLTISSVQPEDLADYHCGQSYNFPYTFGCGTKLEIK[omitted - human IgG1 Fc with changes]
heavy: EVQLVESGGGLVKPGGSLRLSCAASGFTFSNSAVSWVRQAPGKGLEWVSSITSGVSYTYYADSVKGRFTISRDNAKNSLYLQMNSLRAEDTAVYYCTRQFKGNALDYWGQGTSVTVSSASTKGPSVFPLAPSSKSTSGGTAALGCLVKDYFPEPVTVSWNSGALTSGVHTFPAVLQSSGLYSLSSVVTVPSSSLGTQTYICNVNHKPSNTKVDKKV[omitted - human IgG1 Fc with changes]
light: DIVMTQSPSSLSVSPGERVTISCKSSQSLLNSGNQKNYLAWYQQKPGQPPKLLIYWASTRESGVPDRFSGSGSGTDFTLTISSLQAEDVAVYYCQNDYFYPLTFGAGTKLELKRTVAAPSVFIFPPSDEQLKSGTASVVCLLNNFYPREAKVQWKVDNALQSGNSQESVTEQDSKDSTYSLSSTLTLSKADYEKHKVYACEVTHQGLSSPVTKSFNRGEC
notes: Three peptide chains; HC1 and HC2 linked by two hinge disulfide bonds, HC2 and L3 by one disulfide bond; Monovalent for CD47 (scFv arm) and for CLDN18.2 (Fab arm); also called anti-CLDN18.2/anti-CD47 bispecific antibody
**Q.** How did the EC50 [1] turn out when B1 was run?
**A.** 10.1 nM

**Q.** What about the EC50 [2] of the same binder?
**A.** 0.021 nM

**Q.** What about the EC50 [3] of the same binder?
**A.** 24.1 nM

**Q.** And the EC50 [4]?
**A.** 10.6 nM

**Q.** What about the Kd [5] of the same binder?
**A.** 21.7 nM

**Q.** What about the koff [5] of the same binder?
**A.** 0.0148 s⁻¹

**Q.** What about the kon [5] of the same binder?
**A.** 682000 M⁻¹ s⁻¹

**Q.** What about the EC50 [6] of the same binder?
**A.** 0.164 nM

**Q.** And the Kd [7]?
**A.** 1.5 nM

**Q.** And the koff [7]?
**A.** 5.18e-05 s⁻¹

**Q.** What about the kon [7] of the same binder?
**A.** 34600 M⁻¹ s⁻¹
